The values that follow come from the supplement of paper PMC10037445.

The test system of experiment [1] is RAW-Dual. Description: IRF Lucia reporter activity, fold change vs agonist alone; cytotoxicity flag (confluency mask): not cytotoxic; higher = enhanced IRF activity. The essentials:
(§1)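 Supernatant from RAW-Dual macrophages was read after 20 hours for IRF by QuantiLuc luminescence and for NF-κB by QuantiBlue absorbance at 620 nm. The cells (50,000 cells/well in DMEM, 384-well plates, 37 °C, 5% CO2) had received 50 nL of library stock by pin tool and, 1 h later, a PRR agonist. Reporter activity is expressed relative to agonist-alone wells as fold change, and wells were flagged cytotoxic if IncuCyte confluency was under 70% of agonist controls in both mask sets.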

Experiment [2] relates to RAW-Dual. Description: IRF Lucia reporter activity, fold change vs agonist alone; higher = enhanced IRF activity. Particulars: cytotoxicity flag (confluency mask): not cytotoxic, agonist: MPLA (TLR4) […]. Put shortly:
as §1

For experiment [3], the system named is RAW-Dual. Description: IRF Lucia reporter activity, fold change vs agonist alone; cytotoxicity flag (confluency mask): cytotoxic (confluency <70% of control); higher = enhanced IRF activity. Put shortly:
as §1

Where [4] appears, read: agonist: 3'3'-cGAMP (STING) 10 ug/mL.
Setting [5] is: library stock concentration (final ~1000-fold dilution): 10 mM.

The structures appear in SMILES notation. The full ranking holds about 2,900 compounds; the median of “IRF Lucia reporter activity, fold change vs agonist alone” is about 0.9, and the highest 2% start at about 2.8. This is one part of the list.

In the case of `O=C(COc1cccc2c(=O)[nH]ccc12)c1ccccc1` (library stock concentration (final ~1000-fold dilution): 10 mM), the results for the “IRF Lucia reporter activity” value with RAW-Dual [1] (setting [4]) and in the experiment with RAW-Dual [1] (agonist: LPS (TLR4) 0.1 ug/mL) were 0.685 and 0.623, respectively.
Turning to `C=C(CC)C(=O)c1ccc(OCC(=O)O)c(Cl)c1Cl`, the “IRF Lucia reporter activity” value in the experiment with RAW-Dual [2] (setting [5]) was 0.855.
On to `C=C(CC)C(=O)c1ccc(OCC(=O)O)c(Cl)c1Cl` (library stock concentration (final ~1000-fold dilution): 10 mM), for which the results for the “IRF Lucia reporter activity” value with RAW-Dual [1] (setting [4]) and in the experiment on RAW-Dual [1] (agonist: LPS (TLR4) 0.1 ug/mL) were 0.648 and 0.785, respectively.
In the same order, the values of `CCc1c2c(nc3ccc(O)cc13)-c1cc3c(c(=O)n1C2)COC(=O)C3(O)CC` (stereo not drawn) (library stock concentration (final ~1000-fold dilution): 10 mM) are 1.24 and 1.29.
As to `CCc1c2c(nc3ccc(O)cc13)-c1cc3c(c(=O)n1C2)COC(=O)C3(O)CC` (stereo not drawn), the “IRF Lucia reporter activity” value in the experiment with RAW-Dual [2] (setting [5]) was determined as 1.65.
As to `CCOCCn1c(C2CCN(CCc3ccc(C(C)(C)C(=O)O)cc3)CC2)nc2ccccc21`, the “IRF Lucia reporter activity” value with RAW-Dual [2] (library stock concentration (final ~1000-fold dilution): 2 mM) was 1.14.
Take `CCOCCn1c(C2CCN(CCc3ccc(C(C)(C)C(=O)O)cc3)CC2)nc2ccccc21` (library stock concentration (final ~1000-fold dilution): 2 mM): the “IRF Lucia reporter activity” value was determined as 0.971 with RAW-Dual [1] (setting [4]) and 1.1 with RAW-Dual [1] (agonist: LPS (TLR4) 0.1 ug/mL).
In the case of `CN1CCN(CC/C=C2/c3ccccc3Sc3ccc(S(=O)(=O)N(C)C)cc32)CC1` (library stock concentration (final ~1000-fold dilution): 10 mM), the results for the “IRF Lucia reporter activity” value in the experiment with RAW-Dual [3] (setting [4]) and in the experiment on RAW-Dual [3] (agonist: LPS (TLR4) 0.1 ug/mL) were 0.409 and 0.885, respectively.
As for `CC1OC(OC2C(CO)OC(OC3C(CO)OC(O)C(O)C3O)C(O)C2O)C(O)C(O)C1NC1C=C(CO)C(O)C(O)C1O` (stereo not drawn) (library stock concentration (final ~1000-fold dilution): 10 mM), the entries for the “IRF Lucia reporter activity” value in the experiment on RAW-Dual [1] (setting [4]) and with RAW-Dual [1] (agonist: LPS (TLR4) 0.1 ug/mL) were 0.927 and 0.756, respectively.
For the compound `CC1OC(OC2C(CO)OC(OC3C(CO)OC(O)C(O)C3O)C(O)C2O)C(O)C(O)C1NC1C=C(CO)C(O)C(O)C1O` (stereo not drawn), in the experiment with RAW-Dual [2] (setting [5]), the “IRF Lucia reporter activity” value came to 0.939.
On the same count and under the same terms, under `COc1ccc(-c2ccc3c(N4CCOCC4)nc(N4CC(C)OC(C)C4)nc3n2)cc1CO` (stereo not drawn) stands 0.817.
For `COc1ccc(-c2ccc3c(N4CCOCC4)nc(N4CC(C)OC(C)C4)nc3n2)cc1CO` (stereo not drawn) (library stock concentration (final ~1000-fold dilution): 10 mM), the “IRF Lucia reporter activity” value with RAW-Dual [1] (setting [4]) turned out to be 0.776; in the experiment on RAW-Dual [1] (agonist: LPS (TLR4) 0.1 ug/mL), 0.716.
The matching figures for `CNC1CCCN(c2c(F)cc3c(=O)c(C(=O)O)cn(C4CC4)c3c2OC)C1` (stereo not drawn) (library stock concentration (final ~1000-fold dilution): 10 mM): 1.04 and 0.907.
As for `CNC1CCCN(c2c(F)cc3c(=O)c(C(=O)O)cn(C4CC4)c3c2OC)C1` (stereo not drawn), the “IRF Lucia reporter activity” value in the experiment with RAW-Dual [2] (setting [5]) amounted to 0.995.
For `CSC1(C(=O)Nc2ccc3[nH]nc(-c4ccc(OC(C)C)nc4)c3c2)CCN(CC(=O)N2CC=C(c3ccc(-c4ncn(C)n4)cc3)CC2)C1` (stereo not drawn) (library stock concentration (final ~1000-fold dilution): 10 mM), the “IRF Lucia reporter activity” value turned out to be 0.601 with RAW-Dual [1] (setting [4]) and 1.25 with RAW-Dual [1] (agonist: LPS (TLR4) 0.1 ug/mL).
Turning to `CC(C)c1nc(N(C)S(C)(=O)=O)nc(-c2ccc(F)cc2)c1C=CC(O)CC(O)CC(=O)O` (stereo not drawn), the “IRF Lucia reporter activity” value in the experiment with RAW-Dual [2] (setting [5]) worked out at 0.959.
Consider `CC(C)c1nc(N(C)S(C)(=O)=O)nc(-c2ccc(F)cc2)c1C=CC(O)CC(O)CC(=O)O` (stereo not drawn) (library stock concentration (final ~1000-fold dilution): 10 mM), for which the figures for the “IRF Lucia reporter activity” value in the experiment on RAW-Dual [1] (setting [4]) and in the experiment with RAW-Dual [1] (agonist: LPS (TLR4) 0.1 ug/mL) were 0.848 and 0.956, respectively.
In the same order, the values of `Cl.NCCNC(=O)c1ccc(Cl)cn1` (library stock concentration (final ~1000-fold dilution): 10 mM) are 0.994 and 0.941.
`Cl.NCCNC(=O)c1ccc(Cl)cn1`: in the experiment on RAW-Dual [2] (setting [5]), the “IRF Lucia reporter activity” value was determined as 1.1.
Take `Cc1cc(-c2ccc(N=Nc3ccc4c(S(=O)(=O)O)cc(S(=O)(=O)O)c(N)c4c3O)c(C)c2)ccc1N=Nc1ccc2c(S(=O)(=O)O)cc(S(=O)(=O)O)c(N)c2c1O`: the “IRF Lucia reporter activity” value in the experiment with RAW-Dual [2] (setting [5]) stood at 1.
`Cc1cc(-c2ccc(N=Nc3ccc4c(S(=O)(=O)O)cc(S(=O)(=O)O)c(N)c4c3O)c(C)c2)ccc1N=Nc1ccc2c(S(=O)(=O)O)cc(S(=O)(=O)O)c(N)c2c1O` (library stock concentration (final ~1000-fold dilution): 10 mM): the “IRF Lucia reporter activity” value came out at 0.713 in the experiment on RAW-Dual [1] (setting [4]) and 0.804 in the experiment on RAW-Dual [1] (agonist: LPS (TLR4) 0.1 ug/mL).
In the same order, the values of `Cn1cc(-c2cc3c(-c4ccc(CNC(=O)c5noc(C(C)(C)C)n5)c(F)c4)ncnc3[nH]2)cn1` (library stock concentration (final ~1000-fold dilution): 10 mM) are 0.039 and 0.396.
In the case of `Nc1n[nH]c2nnc(-c3c(-c4ccccc4)nn4ccccc34)cc12`, the “IRF Lucia reporter activity” value in the experiment on RAW-Dual [2] (setting [5]) was determined as 0.945.
Regarding `Nc1n[nH]c2nnc(-c3c(-c4ccccc4)nn4ccccc34)cc12` (library stock concentration (final ~1000-fold dilution): 10 mM), the “IRF Lucia reporter activity” value turned out to be 0.275 in the experiment on RAW-Dual [1] (setting [4]) and 1.4 in the experiment on RAW-Dual [1] (agonist: LPS (TLR4) 0.1 ug/mL).
On to `Cc1cc(C)c2c(c1)C(N(Cc1cc(C(F)(F)F)cc(C(F)(F)F)c1)c1nnn(C)n1)CCCN2CC1CCC(C(=O)O)CC1` (stereo not drawn), for which the “IRF Lucia reporter activity” value in the experiment on RAW-Dual [2] (setting [5]) came to 1.38.
For `Cc1cc(C)c2c(c1)C(N(Cc1cc(C(F)(F)F)cc(C(F)(F)F)c1)c1nnn(C)n1)CCCN2CC1CCC(C(=O)O)CC1` (stereo not drawn) (library stock concentration (final ~1000-fold dilution): 10 mM), the “IRF Lucia reporter activity” value in the experiment with RAW-Dual [1] (setting [4]) came out at 1.15; with RAW-Dual [1] (agonist: LPS (TLR4) 0.1 ug/mL), 1.16.
The matching figures for `CC1=C(C)C(=O)C(CCCCCCCCCC[P+](c2ccccc2)(c2ccccc2)c2ccccc2)=CC1=O` (library stock concentration (final ~1000-fold dilution): 10 mM): 0.012 and 0.0121.
